Counter-ions that a name gives are not always drawn. ± gives the standard deviation of the averaged measurements. The list shows a part of the results.
Columns and labels:
Settings in all cases: priming compound concentration 100 µM
hAMSC donor 1 [1] = test: Hoechst total cell count ratio vs vehicle control; higher = more cells (less toxicity)
hAMSC donor 2 [2] = test: as above
hAMSC donor 1 [3] = test: transgenic luciferase activity (RLU/mg protein) fold change vs vehicle control (ratio); higher = more transgene expression
hAMSC donor 2 [4] = test: as above
hAMSC donor 1 [5] = test: transfection efficiency (EGFP+ cells / Hoechst count) fold change vs vehicle control (ratio); hAMSC are human adipose-derived mesenchymal stem cells given an EGFP-luciferase plasmid by lipofection; higher = enhanced transfection
hAMSC donor 2 [6] = test: as above
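Throughout, for Hoechst total cell count ratio vs vehicle control: compound added 30 min before Lipofectamine 3000 lipoplex delivery, triplicate-well means expressed against DMSO vehicle control wells of the same 96-well plate.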
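Throughout, for transfection efficiency (EGFP+ cells / Hoechst count) fold change vs vehicle control: compounds added 30 min before Lipofectamine 3000 lipoplex transfection, triplicate means relative to DMSO vehicle wells on the same plate, luciferase RLU normalized to BCA total protein.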
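Throughout, for transgenic luciferase activity (RLU/mg protein) fold change vs vehicle control: compounds in DMSO added 30 min before Lipofectamine 3000 transfection of pEGFP-Luc in 96-well plates, values are means of triplicate wells over DMSO vehicle wells on the same plate.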

Structure (SMILES)	Hoechst total cell count ratio (hAMSC donor 1 [1])	Hoechst total cell count ratio (hAMSC donor 2 [2])	transgenic luciferase activity (hAMSC donor 1 [3])	transgenic luciferase activity (hAMSC donor 2 [4])	transfection efficiency (hAMSC donor 1 [5])	transfection efficiency (hAMSC donor 2 [6])
CCCN[C@H]1CCc2nc(N)sc2C1 [Pramipexole]	1.31 ± 0.03	1.2 ± 0.12	0.435 ± 0.44	0.646 ± 0.2	0.943 ± 0.079	0.94 ± 0.18
CCC(=O)O[C@]1(C(=O)SCF)[C@H](C)C[C@H]2[C@@H]3C[C@H](F)C4=CC(=O)C=C[C@]4(C)[C@@]3(F)[C@@H](O)C[C@@]21C [Fluticasone propionate]	1.27 ± 0.035	0.924 ± 0.023	2.54 ± 1.4	1.94 ± 0.026	–	–
CCCC(CCC)C(=O)O [Valproic acid]	1.21 ± 0.28	1.59 ± 0.41	1.3 ± 0.81	1.13 ± 0.26	1.05 ± 0.2	0.966 ± 0.17
O=S(=O)(O)CCS [Mesna]	1.13 ± 0.14	1.5 ± 0.087	1.11 ± 0.37	0.86 ± 0.32	1.13 ± 0.17	0.879 ± 0.038
CC(C)(C)NC(=O)[C@@H]1CN(Cc2cccnc2)CCN1C[C@@H](O)C[C@@H](Cc1ccccc1)C(=O)N[C@H]1c2ccccc2C[C@H]1O [Indinavir sulfate]	1.28 ± 0.19	1.2 ± 0.14	0.4 ± 0.18	0.772 ± 0.19	1.31 ± 0.27	1.16 ± 0.14
CCN(CC)CCCC(C)Nc1c2ccc(Cl)cc2nc2ccc(OC)cc12 (stereo unspecified) [Quinacrine hydrochloride hydrate]	0.237 ± 0.072	0.0557 ± 0.03	0.00188 ± 0.0004	0.000565 ± 0.00018	–	–
COc1cc(Cc2cnc(N)nc2N)cc(OC)c1OC [Trimethoprim]	1.16 ± 0.089	1.69 ± 0.23	0.747 ± 0.4	3.09 ± 0.51	1.16 ± 0.072	1.17 ± 0.13
CC(=O)Nc1nnc(S(N)(=O)=O)s1 [Acetazolamide]	1.48 ± 0.047	1.15 ± 0.046	0.623 ± 0.34	0.381 ± 0.028	0.852 ± 0.1	1.22 ± 0.35
CN1CCC[C@H]1c1cccnc1 [Nicotine]	1.32 ± 0.017	1.3 ± 0.3	0.985 ± 0.5	0.682 ± 0.11	0.998 ± 0.14	1.13 ± 0.21
Oc1ccc(C2CNCCc3c2cc(O)c(O)c3Cl)cc1 (stereo unspecified) [Fenoldopam mesylate]	1.74 ± 0.22	1.13 ± 0.11	1.19 ± 0.15	0.957 ± 0.23	0.899 ± 0.25	0.418 ± 0.074
C#C[C@]1(O)CC[C@H]2[C@@H]3CCC4=Cc5oncc5C[C@]4(C)[C@H]3CC[C@@]21C [Danazol]	1.3 ± 0.14	0.879 ± 0.12	1.18 ± 1.3	0.333 ± 0.085	0.448 ± 0.19	0.809 ± 0.21
CC1(C)S[C@@H]2[C@H](NC(=O)Cc3ccccc3)C(=O)N2[C@H]1C(=O)O [Penicillin G potassium]	1.45 ± 0.24	1.17 ± 0.28	1.54 ± 0.15	0.54 ± 0.32	0.683 ± 0.32	1.3 ± 0.2
Cc1ncc([N+](=O)[O-])n1CCO [Metronidazole]	0.848 ± 0.061	0.933 ± 0.033	1.03 ± 0.66	1.18 ± 0.14	0.984 ± 0.35	1.34 ± 0.089
CC(=O)/N=c1/sc(S(N)(=O)=O)nn1C [Methazolamide]	1.29 ± 0.14	0.756 ± 0.12	0.9 ± 0.2	0.616 ± 0.39	0.899 ± 0.29	1.13 ± 0.041
COc1nc(C)nc(Cl)c1NC1=NCCN1 [Moxonidine hydrochloride]	2.25 ± 0.19	1.06 ± 0.018	1.4 ± 0.34	1.76 ± 0.57	0.824 ± 0.091	0.937 ± 0.093
C[C@H](CCC(=O)O)[C@H]1CC[C@H]2[C@@H]3C(=O)C[C@@H]4CC(=O)CC[C@]4(C)[C@H]3CC(=O)[C@]12C [Dehydrocholic acid]	1.13 ± 0.075	0.804 ± 0.083	0.949 ± 0.3	2.02 ± 0.32	1.17 ± 0.45	2.79 ± 0.75
C[C@H]1C[C@H]2[C@@H]3CCC4=CC(=O)C=C[C@]4(C)[C@@]3(Cl)[C@@H](O)C[C@]2(C)[C@@]1(O)C(=O)CO [Beclomethasone]	1.3 ± 0.15	1.97 ± 0.15	7.02 ± 3.2	4.27 ± 1.3	1.1 ± 0.026	1.19 ± 0.19
O=C(c1ccc(F)cc1)C1CCN(CCn2c(=S)[nH]c3ccccc3c2=O)CC1 [Altanserin hydrochloride]	0.93 ± 0.08	0.496 ± 0.023	1.58 ± 0.6	0.881 ± 0.54	–	–
CC1=C(C(=O)O)N2C(=O)[C@@H](NC(=O)[C@H](N)c3ccccc3)[C@H]2SC1 [Cephalexin hydrate]	1.77 ± 0.067	1.11 ± 0.037	0.897 ± 0.084	0.95 ± 0.24	1.13 ± 0.24	0.639 ± 0.048
Cc1cnc(C(=O)NCCc2ccc(S(=O)(=O)NC(=O)NC3CCCCC3)cc2)cn1 [Glipizide]	0.884 ± 0.033	1.18 ± 0.1	1.05 ± 0.49	1.88 ± 0.19	1.32 ± 0.49	1.16 ± 0.18
Nc1nc(N)nc(-c2cc(Cl)ccc2Cl)n1 [Irsogladine maleate]	1.25 ± 0.22	1.23 ± 0.26	0.781 ± 0.15	0.649 ± 0.11	0.901 ± 0.13	1.2 ± 0.18
CN(C)CCN(Cc1ccccc1)c1ccccn1 [Tripelennamine hydrochloride]	1.18 ± 0.14	1.15 ± 0.11	0.487 ± 0.2	0.503 ± 0.059	1.23 ± 0.11	0.855 ± 0.17
CCc1cc(C(N)=S)ccn1 [Ethionamide]	0.999 ± 0.099	1.18 ± 0.26	0.968 ± 0.5	1.04 ± 0.37	1.43 ± 0.14	0.954 ± 0.036

Structure (SMILES)	Hoechst total cell count ratio (hAMSC donor 1 [1])	Hoechst total cell count ratio (hAMSC donor 2 [2])	transgenic luciferase activity (hAMSC donor 1 [3])	transgenic luciferase activity (hAMSC donor 2 [4])	transfection efficiency (hAMSC donor 1 [5])	transfection efficiency (hAMSC donor 2 [6])
CN(CCO)CC(O)Cn1cnc2c1c(=O)n(C)c(=O)n2C (stereo unspecified) [Xanthinol nicotinate]	1.41 ± 0.11	1.27 ± 0.22	0.371 ± 0.19	1.05 ± 0.26	0.693 ± 0.32	0.905 ± 0.13
CN(C)CCCN1c2ccccc2Sc2ccc(Cl)cc21 [Chlorpromazine hydrochloride]	0.105 ± 0.053	0.0663 ± 0.014	0.00788 ± 0.0036	0.000215 ± 4.2e-05	1.65 ± 1.3	0.28 ± 0.069
CC(Oc1c(Cl)cccc1Cl)C1=NCCN1 (stereo unspecified) [Lofexidine hydrochloride]	1.08 ± 0.049	1.23 ± 0.22	1.74 ± 0.63	1.32 ± 0.14	0.896 ± 0.28	1.35 ± 0.035
O=c1[nH]cc(F)c(=O)[nH]1 [5-Fluorouracil]	0.982 ± 0.086	0.627 ± 0.056	1.12 ± 0.63	1.13 ± 0.14	0.703 ± 0.14	1.55 ± 0.42
COC(=O)Nc1nc2cc(C(=O)c3ccccc3)ccc2[nH]1 [Mebendazole]	1.22 ± 0.15	0.163 ± 0.1	0.245 ± 0.065	0.0264 ± 0.031	–	–
CC(=O)[C@]1(O)Cc2c(O)c3c(c(O)c2[C@@H](O[C@H]2C[C@H](N)[C@H](O)[C@H](C)O2)C1)C(=O)c1ccccc1C3=O [Idarubicin hydrochloride]	0.0193 ± 0.027	0.00433 ± 0.0025	0.02 ± 0.016	0.000217 ± 8e-05	–	–
CC(=O)NC[C@H]1CN(c2ccc(N3CCOCC3)c(F)c2)C(=O)O1 [Linezolid]	1.47 ± 0.1	1.27 ± 0.014	5.83 ± 0.91	5.27 ± 1.5	2.92 ± 0.62	1.49 ± 0.19
CCN(CC)C(=O)C1(c2ccccc2)CC1CN (stereo unspecified) [Milnacipran hydrochloride]	1.21 ± 0.16	1.23 ± 0.11	0.889 ± 0.83	0.649 ± 0.16	0.966 ± 0.11	0.801 ± 0.093
CCCSc1ccc2[nH]c(NC(=O)OC)nc2c1 [Albendazole]	0.538 ± 0.048	1.17 ± 0.15	2 ± 2.8	1.03 ± 0.21	1.92 ± 0.51	0.868 ± 0.14
CC(COc1ccccc1Cc1ccccc1)N1CCCCC1 (stereo unspecified) [Benproperine phosphate]	0.9997 ± 0.0084	0.597 ± 0.25	4.45 ± 0.31	1.45 ± 0.34	1.61 ± 0.69	1.28 ± 0.37
O=c1c(O[C@@H]2O[C@H](CO)[C@H](O)[C@H](O)[C@H]2O)c(-c2ccc(O)c(O)c2)oc2cc(O)cc(O)c12 [Hyperoside]	1.21 ± 0.18	0.842 ± 0.037	2.85 ± 1.9	0.671 ± 0.068	1.39 ± 0.5	1.66 ± 0.091
CCn1cc(C(=O)O)c(=O)c2ccc(C)nc21 [Nalidixic acid]	1.15 ± 0.25	0.991 ± 0.12	3.28 ± 2.2	0.296 ± 0.12	1.27 ± 0.036	1.02 ± 0.34
CS(=O)(=O)c1ccc(-c2cc(Br)sc2-c2ccc(F)cc2)cc1	1.38 ± 0.35	0.885 ± 0.058	0.566 ± 0.45	0.486 ± 0.05	0.812 ± 0.073	0.525 ± 0.074
CC=CC(=O)N(CC)c1ccccc1C [Crotamiton]	0.803 ± 0.17	0.748 ± 0.22	0.777 ± 0.27	0.83 ± 0.24	1.58 ± 0.15	1.06 ± 0.17
C#C[C@]1(O)CC[C@H]2[C@@H]3CCc4cc(O)ccc4[C@H]3CC[C@@]21C [Ethynylestradiol]	1.09 ± 0.011	1.1 ± 0.16	1.08 ± 0.28	0.624 ± 0.15	1.07 ± 0.34	0.784 ± 0.21
COc1cc(C)c(Cc2cnc(N)nc2N)cc1OC [Ormetoprim]	1.07 ± 0.046	1.24 ± 0.3	0.907 ± 0.49	0.37 ± 0.079	1.34 ± 0.42	1.29 ± 0.43
COc1ccccc1N1CCN(CCCNc2cc(=O)n(C)c(=O)n2C)CC1 [Urapidil hydrochloride]	1.19 ± 0.22	1.13 ± 0.014	0.234 ± 0.033	0.93 ± 0.23	1.06 ± 0.52	1.07 ± 0.14
CCCNC(C)C(=O)Nc1ccccc1C (stereo unspecified) [Prilocaine hydrochloride]	1.23 ± 0.091	1.33 ± 0.17	1.61 ± 0.31	1.26 ± 0.096	1.43 ± 0.35	1.04 ± 0.17
OCCOCCN1CCN(C2=Nc3ccccc3Sc3ccccc32)CC1 [Quetiapine fumarate]	1.21 ± 0.092	1.08 ± 0.17	0.506 ± 0.072	1.21 ± 0.27	1.22 ± 0.3	1.08 ± 0.13
CC(=O)O[C@]1(C(C)=O)CC[C@H]2[C@@H]3C[C@H](C)C4=CC(=O)CC[C@]4(C)[C@H]3CC[C@@]21C [Medroxyprogesterone 17-acetate]	1.3 ± 0.024	1.59 ± 0.22	1.6 ± 0.35	1.6 ± 0.28	1.67 ± 0.26	1.39 ± 0.13
CN1[C@@H](CC(=O)c2ccccc2)CCC[C@H]1C[C@H](O)c1ccccc1 [Lobeline hydrochloride]	1.38 ± 0.092	1.55 ± 0.54	0.722 ± 0.16	0.482 ± 0.15	0.888 ± 0.35	0.729 ± 0.18
Cc1ccsc1C(=CCCN1CCC[C@@H](C(=O)O)C1)c1sccc1C [Tiagabine hydrochloride]	1.54 ± 0.23	1.56 ± 0.13	0.701 ± 0.069	0.786 ± 0.09	0.642 ± 0.29	0.627 ± 0.089
OCCN(CCO)c1nc(N2CCCCC2)c2nc(N(CCO)CCO)nc(N3CCCCC3)c2n1 [Dipyridamole]	1.19 ± 0.071	1.21 ± 0.3	4.01 ± 2.9	1.38 ± 0.41	1.06 ± 0.19	1.97 ± 0.37

From the supplement of paper PMC7238544
